Screen size: about 110,000 compounds; about 230 (0.21%) showed an effect of 50% or more. This is one part of the list.
Target: DPAP1 (Plasmodium falciparum, UniProt Q8IIJ9)
Test: primary screen, percent inhibition; read by cleavage of a fluorogenic dipeptide substrate; higher = more effect of the substance
Parameters: species or system P. falciparum D10 trophozoite lysates; single well
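Also: 30 min substrate incubation versus DMSO and 10 µM JCP410 controls.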

Chain of DPAP1 (Q8IIJ9 whole entry, looked up): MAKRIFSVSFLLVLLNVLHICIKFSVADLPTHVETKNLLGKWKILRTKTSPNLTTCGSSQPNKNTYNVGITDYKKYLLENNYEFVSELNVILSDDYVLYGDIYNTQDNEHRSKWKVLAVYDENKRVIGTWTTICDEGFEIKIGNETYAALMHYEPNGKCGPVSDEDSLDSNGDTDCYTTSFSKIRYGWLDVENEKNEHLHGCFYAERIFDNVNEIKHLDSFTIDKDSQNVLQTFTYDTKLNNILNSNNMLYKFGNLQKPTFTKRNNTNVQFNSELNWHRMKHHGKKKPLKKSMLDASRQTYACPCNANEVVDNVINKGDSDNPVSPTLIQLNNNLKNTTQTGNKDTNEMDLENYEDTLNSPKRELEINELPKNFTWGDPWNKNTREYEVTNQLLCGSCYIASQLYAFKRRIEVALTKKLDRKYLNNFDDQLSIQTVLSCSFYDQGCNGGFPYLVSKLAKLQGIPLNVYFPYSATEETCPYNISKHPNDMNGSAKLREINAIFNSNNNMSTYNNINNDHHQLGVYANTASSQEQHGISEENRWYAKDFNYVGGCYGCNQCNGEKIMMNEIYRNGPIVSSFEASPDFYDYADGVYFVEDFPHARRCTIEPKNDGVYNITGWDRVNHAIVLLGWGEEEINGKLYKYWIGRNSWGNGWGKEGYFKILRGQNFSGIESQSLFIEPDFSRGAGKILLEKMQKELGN

Structure (SMILES)	% Inhibition @ 10 uM
Cc1ccc(S(=O)(=O)N(CC(=O)NCc2ccccn2)c2ccc(C(C)C)cc2)cc1	-13.5%
O=C(CSCc1ccccc1)Nc1nnc(Cc2ccc(F)cc2)s1	2.3%
CC(C)c1ccc(-c2c(NCCN3CCN(Cc4ccccc4)CC3)c(=O)c2=O)cc1	-3.17%
Cn1cccc1C(=O)C(Cl)(Cl)Cl	-1.88%
CCCCCOc1ccc(C(=O)NC(CC(C)C)C(=O)NCC#N)cc1 (stereo not shown)	-4.72%
OC1(c2ccc(Br)cc2)CCN(Cc2cc(F)ccc2F)CC1	-6.62%
O=C(Cc1cccc2ccccc12)Nc1cc(Cl)ccc1Cl	5.09%
Cc1ccc(NS(=O)(=O)c2cc(C(=O)O)cc(C)c2C)cc1C	-3.84%
O=C(NC1CCCc2ccccc21)c1ccccn1 (stereo not shown)	-3.92%
CCOc1ccc(C(=O)N2CCOCC2)cc1	-3.32%
COc1cccc(/C=C/c2nc(C#N)c(N3CCOCC3)o2)c1	-2.57%
COc1ccc(Br)cc1CNC(=O)CCCN1C(=O)CSc2nc(C)cc(C)c21	-6.01%
C/C(=C\c1cc(C(=O)O)c(C)o1)CO	-0.736%
CS(=O)(=O)c1oc(-c2ccc(F)cc2)nc1S(=O)(=O)c1ccc(Br)cc1	5.29%
Cc1ccc(Sc2c(C)nn(C(=O)CNS(=O)(=O)c3ccc(Cl)cc3)c2C)cc1	7.75%
COc1cc(/C=C2/C(=N)N3OC(C)=CC3=NC2=O)cc(OC)c1OCCOc1ccc(C)c(C)c1	-1.43%
CCC(C)NC(=O)CNC(=S)N(Cc1ccc(F)cc1)C1CCCCC1 (stereo not shown)	-0.406%
CN1CCN(c2nc(NCCO)c3ccccc3n2)CC1	-17%
CN1c2ccccc2C(C)(C)C12C=Cc1c(ccc3ccccc13)O2 (stereo not shown)	-2.5%
COc1ccc(C2OC(=O)CC2C(=O)NCCc2ccccc2)cc1OC (stereo not shown)	-2.92%
Cc1cccc(CN2CCN(c3ccc(F)cc3)CC2)c1	-0.192%
CCC(C)(C)c1ccc(OCC(=O)Nc2cccc(C(=O)O)c2)cc1	18.7%
CCO/C(O)=C1\C(C)=NC(=S)NC1c1ccc(OC)c(Br)c1 (stereo not shown)	-2.13%
Cc1c(C)n(C)c2ccc(C(=O)NCc3ccc(F)cc3)cc12	3.29%
O=C1CC(N2CCN(c3ccccc3)CC2)C(=O)N1c1ccc(F)cc1 (stereo not shown)	1.92%

Structure (SMILES)	% Inhibition @ 10 uM
Cc1n[nH]c(C)c1C12CC3CC(CC(CC(=O)O)(C3)C1)C2	-14.6%
CCOC(=O)C1=C(C)N=c2s/c(=C\c3ccco3)c(=O)n2C1c1ccccc1Cl (stereo not shown)	-3.67%
CC(C)Oc1ccc(C(=O)Nc2ccccc2)cc1	7.76%
Cc1c2cnn(CC(=O)N3CCC(Cc4ccccc4)CC3)c(=O)c2c(C)n1Cc1ccccc1F	-0.447%
CC(=C/C(=O)O)/C=C/c1cccc2ccccc12	2.22%
CCS(=O)(=O)C1=NN2C(=N)/C(=C\c3ccc(-c4cccc(Cl)c4)o3)C(=O)N=C2S1	-3.35%
CC(C)Oc1ccccc1/C=C1/SC(N2CCOCC2)=NC1=O	8.7%
COc1ccc(CNC(=O)CSc2nnc(N)s2)cc1	1.31%
Cc1ccccc1C(=O)Nc1nc(-c2nnn(-c3ccccc3C)c2C)ns1	-0.835%
COc1ccc2nc(NC(=O)CSc3nc(C)cc(O)n3)sc2c1	-2.74%
CCS(=O)(=O)N1CCC2(CC1)OC(=O)C(C)=C2C(=O)NCc1ccccn1	2.24%
CS(=O)(=O)c1ccc2nc(NC(=O)c3cccn(OCc4ccccc4)c3=O)sc2c1	-1.66%
Cc1ccc(C)c(CN2CCN(C)CC2)c1	-9.49%
COc1ccc(C2C(=O)N(CCc3ccccc3)CC(=O)N2Cc2cccs2)cc1 (stereo not shown)	4.36%
CCOC(=O)C1=C(C)N(C)C(=O)N(C)C1c1ccc(O)cc1 (stereo not shown)	-6.17%
O=C(COc1ccc(Br)cc1Br)NCCc1ccccc1	0.035%
Cc1cc(Nc2ccc(Cl)cc2)c2cccc(C)c2n1	-6.22%
Cc1ccc(Cl)cc1-n1nnnc1C1(Nc2ccccc2)CCCCC1	-1.98%
COc1ccc(-c2nc(CSCc3csc(C)c3C)c(C)o2)cc1OC	3.69%
O=C(OCC(F)(F)F)c1nsc(Cl)c1Cl	3.73%
CCN1CCN(C(=O)c2cc(-c3ccc(Cl)s3)nc3ccccc23)CC1	-0.988%
CNCC1COc2ccccc2O1 (stereo not shown)	3.65%
O=C(Cc1ccsc1-c1ccccc1)NO	-0.415%
CCOC(=O)N1CCN(C(=O)C(C)n2nc(C)n3c(cc4sccc43)c2=O)CC1 (stereo not shown)	1.8%
Cc1nn(-c2ccccc2)c(-n2cccc2)c1C(=O)NCCCN1CCN(C)CC1	-1.58%

Structure (SMILES)	% Inhibition @ 10 uM
N#Cc1c(N2C(=O)C3C4C=CC(C4)C3C2=O)sc2c1CCC2 (stereo not shown)	-4.12%
CC(=O)C1=NN(c2ccc(Cl)cc2)C2C(=O)N(c3ccccc3Cl)C(=O)C12 (stereo not shown)	-1.28%
COc1ccc(C)cc1NC(=O)c1nn(C)cc1Br	3.79%
COc1ccccc1CNS(=O)(=O)c1ccc2c(c1)OCCO2	1.08%
COc1ccc(C2C(C#N)=C(C)N=C3CC(c4ccccc4)CC(O)=C32)cc1 (stereo not shown)	-9.05%
CN(C)c1nc(N)nc(Nc2ccccc2C#N)n1	-6.52%
CC(=O)NCCNC(=O)CCCCCNc1nc(S)nc2ccccc12	2.38%
COc1cccc(/C=C2\SC(=O)N(Cc3ccc(F)cc3)C2=O)c1O	11.2%
Cc1ccc(C2CC(=O)N3CN(CCc4ccccc4)CSC3=C2C#N)cc1 (stereo not shown)	64%
CCOc1cc(C2CC(=O)N3CN(Cc4ccccc4)CSC3=C2C#N)ccc1O (stereo not shown)	19.8%
CCCSC1=C(C#N)C(c2ccccc2)C(C(=O)Nc2ccccc2)=C(C)N1 (stereo not shown)	1.42%
COc1cccc(OC)c1C(=O)Nc1ccc(S(=O)(=O)NC23CC4CC(CC(C4)C2)C3)cc1	1.64%
CC(C)CC(C(=O)NC1(C#N)CC1)c1cccc(-c2csc(N3CCN(CCO)CC3)n2)c1 (stereo not shown)	-8.26%
O=C(O)CSC(=S)Nc1cccnc1	0.0598%
CCOC(=O)C(=O)N1CC2(C)CNCC(C)(C1)C2=O	-0.807%
O=C(NCCO)Nc1ccc(Cl)c(Cl)c1	-1.91%
FC(F)(F)c1ccccc1CN1CCN(Cc2ccccc2)CC1	-1.86%
O=C(Nc1ccc2c(c1)C(=O)N(CC1CCCO1)C2=O)C(c1ccccc1)c1ccccc1 (stereo not shown)	0.375%
COc1cc(C2Nc3ccccc3N=C3CC(C)(C)CC(O)=C32)cc(Br)c1O (stereo not shown)	-6.44%
O=C(O)c1ccc(CN2CCN(c3ccc([N+](=O)[O-])cc3)CC2)cc1	3.16%
O=C1NC(=O)C(=Cc2ccc(OCc3ccc(C(=O)O)cc3)c(Br)c2)C(=O)N1	-4.35%
O=C1c2ccccc2C(=O)C1(c1ccccc1)N1CCN(c2ccccn2)CC1	-2.99%
c1ccc(CN(Cc2ccccc2)c2ncnc3c2cnn3-c2ccccc2)cc1	-0.357%
COc1ccc(S(=O)(=O)Cc2ccc(C(=O)NC3CCCc4ccccc43)o2)cc1 (stereo not shown)	0.718%
CCSc1nc2sc3c(c2c(=O)n1Cc1ccccc1)CCCC3	1.4%

Structure (SMILES)	% Inhibition @ 10 uM
COc1ccc2[nH]c3c(=O)n(CCCCC(=O)NCCc4c[nH]c5ccccc45)c(=S)[nH]c3c2c1	4.28%
CC(C)CNC(=O)c1cc(-c2ccccc2)nc2ccccc12	0.146%
O=C1Nc2ccccc2C12Nc1ccccc1S2 (stereo not shown)	-6.39%
CCCCOc1cc(N(CC)CC)ccc1C=C1C(=O)NC(=O)NC1=O	-2.07%
O=C1c2ccccc2C(=O)N1CSc1ncccn1	1.63%
CCOc1ccc(CNC(=O)Cn2ccc3cc(S(=O)(=O)N4CCC(C)CC4)ccc32)cc1	-0.899%
Cc1cc(C)c(C)c(OCCCn2ccnc2)c1	5.35%
CN(C)c1ccc(C(c2c(O)ccc3ccccc23)N2CCOCC2)cc1 (stereo not shown)	4.88%
CC(C)(C)n1nc2c(c1NC(=O)c1ccc(Cl)cc1Cl)CS(=O)(=O)C2	-4.65%
COC(=O)c1ccc(OCC2c3cc(OC)c(OC)cc3CCN2C(=O)c2ccccc2OC)cc1 (stereo not shown)	9.5%
O=C(O)C1C2CCC(C2)C1C(=O)Nc1nc(-c2ccc(Br)cc2)cs1 (stereo not shown)	13.9%
COc1cc2c(cc1OC)C(C)N(C(=O)Nc1cn(C)c(=O)c3ccccc13)CC2 (stereo not shown)	10.3%
O=c1c2ccccc2nc(/C=C/c2cccc(Br)c2)n1CCO	15.6%
CCN1C(=O)N/C(=C/c2ccc(OCC(=O)O)cc2)C1=O	2%
COc1ccccc1C1C(C(C)=O)=C(O)C(=O)N1CCc1ccccc1 (stereo not shown)	-3.09%
CCn1c(=S)[nH]c2sc3c(c2c1=O)CCCC3	42.2%
Nc1nc(-c2ccco2)nc(-c2ccco2)n1	-15.6%
Cc1ccccc1Cc1c(C)nc2nc(SCC(=O)N3CCC(C)CC3)nn2c1C	-5.69%
Cc1ccc(Nc2nc(-c3sc(C)nc3C)cs2)cc1	8.19%
CN(CC(=O)N1CCN(c2ncccn2)CC1)S(=O)(=O)c1cccc2nsnc12	3.63%
Cc1c(C(=O)N2CCOCC2)sc2nc3n(c(=O)c12)N=C(c1ccc(Cl)cc1)CS3	15.2%
Cc1cccc(NC(=O)c2cccc(N3C(=O)C4C5C=CC(C6CC56)C4C3=O)c2)c1 (stereo not shown)	-4.91%
Cc1cc(C(=O)NC2CCN(Cc3ccccc3)CC2)c2c(C)nn(-c3ccccc3)c2n1	-3.1%
CCOC(=O)C1=C(CC)OC(N)=C(C#N)C1c1ccc(Br)s1 (stereo not shown)	-10.8%
O=C(c1c(O)c2ccccc2oc1=O)C1CC1	-2.21%

Reference: PMC6919601, “Identification of Plasmodium dipeptidyl aminopeptidase allosteric inhibitors by high throughput screening” (PLoS ONE, 2019)
